# Measurements taken from PubChem BioAssay AID686971 (National Center for Advancing Translational Sciences (NCATS), 2013).
# Among all 360,000 compounds or so, about 7,500 (2.1%) were called active. The inconclusive results got no clear call from the source; some entries with a clear call stand among them for comparison. The call rests on the fitted dose curve; in most records, active means well fitted cell-killing curve with a large enough effect; inconclusive means small, poorly fitted or top-dose-only effect, or effect the other way, or another doubt; inactive means no such curve, though single readings can be large or run the other way. Potencies of inconclusive entries are left out as doubtful fits.
# Experiment: qHTS for induction of synthetic lethality in tumor cells producing 2HG: qHTS for the HT-1080-IDH1KD cell line;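 on activity, negative = toxicity: 0% = DMSO wells and -100% = cell-free medium wells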
# Settings: HT-1080 IDH1 knockdown viability, ATP luminescence, 48 h; activity, negative = toxicity: at 46.1 µM (top of the series) unless noted
# Procedure, shortened: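 Using the IDH1-knockdown HT-1080 line run in the same batch and compound series as the NT line, viability after 48 h at 37 °C was determined by CellTiter-Glo luminescence and expressed as % activity.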
# Potency means the concentration at half of the fitted maximal effect; tags describe the fitted curve by direction and shape.
Compound,Potency,"activity, negative = toxicity"
COc1ccc(OC)c(N2C(=O)CC(Cc3ccc(Cl)cc3)C2=O)c1 (centres undefined),inactive,
O=C(OCCN1C(=O)c2cccc3c(N4CCOCC4)ccc(c23)C1=O)c1ccc(Cl)cc1Cl,active: 2.31 µM,
C=CCOc1ccc(/C=C/C(=O)OCC(=O)NCC2CCCCC2)cc1,"inconclusive [cytotoxic, single point]",
COc1cccc(CNC(=O)c2cccc(S(=O)(=O)N3CCN(Cc4ccccc4)CC3)c2)c1,inactive,
Fc1ccc2c(c1)C(c1ccncc1)=NNC(c1ccc(Br)cc1)=N2,"inconclusive [cytotoxic, single point]",
CN(CC(=O)Nc1ccccc1N1CCOCC1)S(=O)(=O)c1ccc(F)cc1,inactive,
CC(C)Nc1nc2nonc2nc1Nc1ccccc1,"inconclusive [cytotoxic, single point]",
COCC(C)NC(=O)C(C)N1c2cccc3cccc(c23)S1(=O)=O (centres undefined),inactive,
COc1ccc(CNC(=O)C2Cc3c(-c4cccc(C(C)=O)c4)ccnc3O2)cc1OC (centres undefined),"inconclusive [cytotoxic, single point]",
CCc1cc(/C(Cc2ccccn2)=N\O)c(O)cc1O,active: 12.6 µM,
CCCN(CC(=O)Nc1ccc(Cl)cc1Cl)C(=O)/C=C/c1ccco1,"inconclusive [cytotoxic, single point]",
Cc1ccc2nc(-c3ccc(NC(=S)NC4CC(C)(C)NC(C)(C)C4)cc3)sc2c1,"inconclusive [cytotoxic, single point]",
COc1cc(C2C(=O)c3ccccc3C2=O)ccc1O,inactive,
O=C(Nc1cc(=O)[nH]c(=O)[nH]1)c1cc(Cl)ccc1Cl,active: 3.26 µM,
CCc1cc(-c2[nH]ncc2-c2ccc3c(c2)OCO3)c(O)cc1O,"inconclusive [cytotoxic, single point]",
CC1(C(=O)O)CCC(C(=O)Nc2ccc(S(N)(=O)=O)cc2)C1(C)C (centres undefined),inactive,
Cc1cc(Cl)ccc1C(O)c1ncc(-c2ccc3ccccc3c2)[nH]1 (centres undefined),"inconclusive [cytotoxic, single point]",
C#CCOCCOCCOCCNc1nc(N2CCN(C(=O)CCCCCCCCCCNC(=O)[C@H]([C@@H](C)CC)n3cc(CCCCCN)nn3)CC2)nc(N2CCN(C(=O)CCCCCCCCCCNC(=O)[C@H](CO)n3cc(CCCCCN)nn3)CC2)n1,"inconclusive [cytotoxic, single point]",
CC(=O)Nc1cc(-c2ccsc2)cn2c(-c3ccc(F)cc3)cnc12,"inconclusive [cytotoxic, single point]",
COc1ccccc1N(Cc1ccccc1)S(=O)(=O)c1cccc(C(=O)Nc2cc(C)ccn2)c1,"inconclusive [cytotoxic, partial curve]",
O=C(CCCCC(=O)NN=Cc1ccccc1O)NN=Cc1ccccc1O,active: 6.51 µM,
O=C(Nc1nnc(-c2ccc3c(c2)CCCC3)o1)c1ccccc1,"inconclusive [cytotoxic, partial curve]",
C#CCCOC(=O)N1C2=NC(C(=O)OC)=C(C(=O)OC)[C@@H]3N(Cc4ccccc4)c4ccccc4[C@]23C[C@H]1C(=O)OC,"inconclusive [cytotoxic, single point]",

Compound,Potency,"activity, negative = toxicity"
Cn1nc(C(C)(C)C)cc1C(=O)N1CCC(C)(C(=O)NS(=O)(=O)C2CC2)C1 (centres undefined),inactive,
COc1ccc(NC(=O)C(=O)NCC2CCCN2S(=O)(=O)c2cccs2)cc1 (centres undefined),"inconclusive [cytotoxic, single point]",
Cc1ccc(NC(=O)CN2C(=O)c3ccccc3S2(=O)=O)c(C)c1,inactive,
COc1cc(C(CCN2CCOCC2)c2c(OC)cc(OC)c3c(-c4ccccc4)cc(=O)oc23)cc(OC)c1OC (centres undefined),"inconclusive [cytotoxic, partial curve]",
N#Cc1sc2nc(N3CCCCC3)c3c(c2c1N)CCCC3,"inconclusive [cytotoxic, single point]",
COc1ccc(C2c3ccc4ccccc4c3Oc3ncn(CCO)c(=N)c32)cc1 (centres undefined),active: 11.6 µM,
COc1cc(CNCCCN2CCOCC2)cc(Br)c1OCc1ccc(Cl)cc1,"inconclusive [cytotoxic, single point]",
COc1ccc2c(-c3ccccc3)cc(SCC(=O)NC3CCS(=O)(=O)C3)nc2c1 (centres undefined),"inconclusive [cytotoxic, partial curve]",
COc1cc(S(=O)(=O)Nc2ccc(C)cc2)ccc1N=Cc1c(C)[nH]n(-c2ccc(C)cc2)c1=O,"inconclusive [cytotoxic, full curve]",
CC(=O)/C=C(\C)N=Nc1c(O)[nH]c2ccccc12,inactive,
CCCCOc1ccc(C2=NNC(=O)CC2)cc1,"inconclusive [cytotoxic, partial curve]",
COc1cccc(CC(=O)NNC(=O)c2ccc3c(c2)OCO3)c1,"inconclusive [rising, single point]",
CCCCOP(=O)(OCCCC)C1(NS(=O)(=O)c2ccccc2)C=CC(=O)c2ccccc21 (centres undefined),active: 23.1 µM,
COc1ccccc1N1CCN(C(=O)c2ccc3nc(-c4ccco4)c(-c4ccco4)nc3c2)CC1,"inconclusive [cytotoxic, single point]",
CCOC(=O)Cn1c(=N)n(Cc2ccccc2)c2ccccc21,inactive,
S=C(NCc1ccncc1)Nc1ccc(Cl)c(Cl)c1,"inconclusive [cytotoxic, single point]",
CC(=O)c1nn(-c2cccc(Br)c2)cc1C(=O)c1ccc(Cl)cc1,"inconclusive [cytotoxic, partial curve]",
C#CC(=O)N(c1cc(OC)ccc1OC)C(C(=O)NC1CCCC1)c1cccs1 (centres undefined),active: 0.731 µM,
COc1ccc(-n2cccc2/C=C/[N+](=O)[O-])cc1,"inconclusive [cytotoxic, single point]",
COC(=O)C1=C(C)N(Cc2ccccc2)C(=NCCc2cccnc2)N[C@H]1c1ccc(Br)cc1,"inconclusive [cytotoxic, single point]",
CSc1cc(-c2ccccc2)[nH]c(=O)c1C#N,inactive,
Cc1noc(C)c1C(=O)OCC(=O)Nc1ncc(C(F)(F)F)cc1Cl,inactive,
CCN(CC)c1ccc(NC(=O)CN2CCN(S(=O)(=O)c3cc(Cl)ccc3OC)CC2)cc1,"inconclusive [cytotoxic, single point]",

Compound,Potency,"activity, negative = toxicity"
O=C1C(=NO)CCc2ccccc21,"inconclusive [cytotoxic, single point]",
COC(=O)C(Sc1ccc(Cl)cc1)C1SC(=S)N(Cc2ccccc2)C1=O (centres undefined),"inconclusive [cytotoxic, single point]",
S=c1[nH]nc(-c2ccncc2)n1/N=C/C(Cl)=C\c1ccccc1,"inconclusive [cytotoxic, single point]",
COc1ccccc1CNc1nc(NC(C)C)nc2cc(-c3ccccc3)sc12,"inconclusive [cytotoxic, single point]",
Cc1cc(C)nc(SCc2ccc(C(=O)N/N=C/c3ccccn3)cc2)n1,"inconclusive [cytotoxic, partial curve]",
CCC(C)NCCCOc1c(C)cc(C)cc1Br (centres undefined),"inconclusive [cytotoxic, single point]",
c1ccc(-c2cc3nc(NCC4CC4)nc(NCC4CCCCC4)c3s2)cc1,active: 4.61 µM,
Cc1cc(OCC(=O)Nc2nccs2)c2c(C)cc(=O)oc2c1,inactive,
C/C(=N\NC(=O)c1ccccc1O)c1c(O)cc(C)oc1=O,active: 10 µM,
COc1ccc(N2CCc3c(C)nc4c(OC)cc(OC)cc4c32)cc1,active: 23.1 µM,
NNC(=O)c1ccc(COc2ccc3c(c2)CCC3)o1,"inconclusive [cytotoxic, single point]",
COc1ccccc1N1CCN(Cc2ccc(OC)c3ccccc23)CC1,"inconclusive [cytotoxic, partial curve]",
CCCCC[C@H](C)N1C[C@@H](COCc2ccccc2)Oc2cc(N3CC[C@@H](O)C3)ccc2S1(=O)=O,"inconclusive [cytotoxic, single point]",
O=[N+]([O-])c1cc(-c2nnc(Nc3ccc(O)cc3)c3ccccc23)ccc1N1CCOCC1,"inconclusive [cytotoxic, partial curve]",
C/C(CC(=O)Nc1cc(Cl)ccc1Cl)=N\NC(=O)c1ccccc1Br,inactive,
Cc1ccc(C(=O)COc2ccccc2-c2ccccc2)cc1,inactive,
O=C(NC(NC(=S)Nc1ccc(Cl)c(Cl)c1)C(Cl)(Cl)Cl)c1ccco1 (centres undefined),"inconclusive [cytotoxic, single point]",
CCOC(=O)C1=C(C)NC(C)=C(C(=O)OCC)C1C(=O)OCC(=O)Nc1ccc(NC(C)=O)cc1,inactive,
CCNC(=S)N1CCN(c2nc(-c3cccc(OC)c3)cs2)CC1,,inconclusive: -25% [cytotoxic]
COc1ccc2c(-c3ccc(S(N)(=O)=O)cc3)c(-c3ccc(S(C)(=O)=O)cc3)sc2c1,"inconclusive [cytotoxic, single point]",
Cn1c(-c2cccc([N+](=O)[O-])c2)cnc1NCc1cccc([N+](=O)[O-])c1,inactive,
Cc1ccc(NC(=O)CCN2CCc3ccccc3C2)cc1,"inconclusive [cytotoxic, partial curve]",
O=C(O)c1ccn2c(C(=O)c3ccccc3)c(-c3ccccc3)cc2c1,"inconclusive [cytotoxic, partial curve]",
